# Test results from PubChem BioAssay (Tox21).
# Where “and” joins values, the source holds several entries; their conditions need not be identical. Equal entries are not always repeated. The shares of active, inactive and inconclusive entries below differ from those in the screen. For some assays here: Potencies of inconclusive entries are doubtful fits and often do not repeat. Some structures have more than one record in an assay (separate samples or runs), and their calls can disagree. Calls of active or inactive are those of the source. Unless noted, calls follow the shape of the dose curve; as a rule, active = well fitted curve in the direction sought with a large enough effect in the repeat runs; inconclusive = weak or mixed curves; inactive = no such curve, though single readings can be large; an effect the other way counts as inactive or inconclusive.
# What was measured:
# [1] = qHTS assay to identify small molecule antagonists of the estrogen related receptor signaling pathway with the pleiotropic PPARgamma coactivator (PGC) from Tox21 10K library - cell viability counter screen (AID 1224840; active = well fitted cell-killing curve with a large enough effect in the repeat runs, not every such curve was filed as active; inconclusive = weak or mixed curves, or effect the other way; inactive = no such curve, though single readings can be large or run the other way; also: potency is read from the fitted curve at half-maximal effect; nearly all actives have a fitted effect of over 40% in size)
# In short: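 Counter-screen for cytotoxicity: after 17.5 h compound exposure at 37 C, CellTiter-Fluor reagent added to PGC/ERR cells for 30 min and fluorescence read. Cells were seeded at 2,000 per well 6 h before dosing.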
# [2] = biological target: Thyrotropin receptor (Homo sapiens) (UniProt P16473); test: qHTS assay to identify small molecule agonists of the thyroid stimulating hormone receptor (TSHR) signaling pathway (AID 1224843; calls by dose curve; also: nearly all actives have a fitted effect of over 45% in size; also: potency is read from the fitted curve at half-maximal effect; as to activation: % is scaled to controls: 0 for no effect and ±100 for the full control effect); details: TSHR-HEK293 cells, cAMP HTRF, agonist mode, 30 min; activation: at 92.4 µM (top of the series) unless noted
# Chain of UniProt P16473 (P16473 whole entry, looked up): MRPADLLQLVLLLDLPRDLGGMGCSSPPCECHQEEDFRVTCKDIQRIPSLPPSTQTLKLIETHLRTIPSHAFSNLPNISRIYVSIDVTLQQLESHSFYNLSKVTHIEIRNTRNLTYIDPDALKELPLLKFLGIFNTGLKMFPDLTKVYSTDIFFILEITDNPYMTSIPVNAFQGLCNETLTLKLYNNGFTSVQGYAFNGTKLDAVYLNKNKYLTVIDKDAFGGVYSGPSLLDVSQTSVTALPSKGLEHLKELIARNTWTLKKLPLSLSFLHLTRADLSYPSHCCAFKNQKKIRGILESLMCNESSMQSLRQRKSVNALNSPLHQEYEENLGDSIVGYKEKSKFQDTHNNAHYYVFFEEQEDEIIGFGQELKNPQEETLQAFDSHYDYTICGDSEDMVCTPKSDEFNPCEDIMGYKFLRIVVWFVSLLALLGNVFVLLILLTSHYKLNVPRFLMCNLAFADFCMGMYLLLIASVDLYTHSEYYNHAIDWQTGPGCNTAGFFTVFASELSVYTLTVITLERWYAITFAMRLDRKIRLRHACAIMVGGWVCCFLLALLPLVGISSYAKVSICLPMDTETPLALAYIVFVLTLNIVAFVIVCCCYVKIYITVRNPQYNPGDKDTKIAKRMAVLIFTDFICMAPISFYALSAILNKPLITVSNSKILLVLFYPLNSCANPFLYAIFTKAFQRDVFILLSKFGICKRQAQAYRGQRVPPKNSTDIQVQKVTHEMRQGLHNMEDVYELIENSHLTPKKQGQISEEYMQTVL
# In short: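 Agonist activity read as cAMP rise via d2/cryptate HTRF competition, 1 h room-temperature detection, in HEK293 cells expressing TSHR. Fifteen-point titrations, each run in triplicate, with a 30 min room-temperature incubation beforehand.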
# [3] = qHTS assay to identify small molecule agonists of the hypoxia (HIF-1) signaling pathway (AID 1224846; active = well fitted activation curve with a large enough effect in the signal ratio in the repeat runs, not every such curve was filed as active; inconclusive = weak or mixed curves; the % refers to the signal ratio; also: potency is read from the fitted curve at half-maximal effect); details: HRE-bla ME-180 cells, beta-lactamase ratio, 17 h; activation: at 76.8 µM (top of the series) unless noted
# In short: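 Compounds added to ME-180 cells carrying hypoxia-response-element beta-lactamase reporter (0.5% dialyzed FBS, 5 h preplating), 17 h at 37C; agonist activity detected by CCF4-AM B/G FRET read-out.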
# [4] = qHTS assay to identify small molecule agonists of H2AX - cell viability counter screen (AID 1224847; calls by dose curve; also: potency is read from the fitted curve at half-maximal effect; nearly all actives have a fitted effect of over 30% in size)
# In short: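 Viability of CHO-K1 (wild type) cells after 3 hr compound exposure was measured by CellTiter-Glo luminescence.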
# [5] = qHTS RealTime-Glo MT Cell Viability Assay in HEK293 cells - 32 hour (AID 1224868); also: potency is read from the fitted curve at half-maximal effect; nearly all actives have a fitted effect of over 50% in size
# In short: (§1)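 Reads taken at 0, 8, 16, 24, 32 and 40 h from the same wells. HEK293 cells (600/well) carried RealTime-Glo reagents from seeding, with compound added after a 5 h settle at 37 C.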
# [6] = A CellTox Green Cytotoxicity Assay to monitor cytotoxicity in HEK293 cells - 40 hour (AID 1224871); also: potency is read from the fitted curve at half-maximal effect; nearly all actives have a fitted effect of over 45% in size
# In short: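 Fluorescence from a DNA-binding dye excluded by viable cells was measured repeatedly in the same HEK293 wells (600 cells/well) during continuous compound exposure at 37 C. Each assay gives one read point: 0, 8, 16, 24, 32 or 40 h.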
# [7] = qHTS RealTime-Glo MT Cell Viability Assay in HEK293 cells - 16 hour (AID 1224872); also: potency is read from the fitted curve at half-maximal effect; nearly all actives have a fitted effect of over 50% in size
# In short: as §1
# [8] = qHTS assay to identify small molecule antagonists of the estrogen related receptor signaling pathway with the pleiotropic PPARgamma coactivator (PGC) from Tox21 10K library (AID 1224841; call rule not given here; also: % is scaled to controls: 0 for no effect and ±100 for the full control effect; actives are mostly falling curves and most rising ones were filed inactive; nearly all actives have a fitted effect of over 50% in size)
# In short: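 Luminescence (One-Glo, 30 min at room temperature) after 18 h compound treatment at 37 C of PGC/ERR reporter cells plated at 2,000 cells/well and settled 6 h beforehand.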
# [9] = qHTS assay to identify small molecule agonists of the estrogen related receptor signaling pathway with the pleiotropic PPARgamma coactivator (PGC) from Tox21 10K library (AID 1224842); also: potency is read from the fitted curve at half-maximal effect; nearly all actives have a fitted effect of over 15% in size
# In short: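 Luminescence from One-Glo (30 min, room temperature) measured after PGC/ERR cells had 18 h at 37 C with pinned compound (23 nL in DMSO). Cells had been seeded at 2,000 per well and pre-incubated 6 h.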
# [10] = qHTS assay to identify small molecule agonists of the hypoxia (HIF-1) signaling pathway - cell viability counter screen (AID 1224844; calls by dose curve; also: nearly all actives have a fitted effect of over 50% in size; also: potency is read from the fitted curve at half-maximal effect)
# In short: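 Cytotoxicity measured by CellTiter-Glo ATP luminescence in the wells also read for beta-lactamase signal. Cells were HRE-bla ME-180 (2,000/well, 0.5% dialyzed FBS), exposed to compounds for 17 h at 37C.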
# [11] = qHTS assay to identify small molecule agonists of H2AX (AID 1224845; active = well fitted activation curve with a large enough effect in the signal ratio in the repeat runs, not every such curve was filed as active; inconclusive = weak or mixed curves; the % refers to the signal ratio; also: potency is read from the fitted curve at half-maximal effect); details: CHO-K1 phospho-H2AX Ser139 HTRF, 3 h; activation (H2AX phosphorylation): at 154 µM (top of the series)
# In short: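 Phospho-H2AX Ser139 measured by HTRF (ex 320 nm; em 665 and 620 nm) after 24 hr antibody incubation. Compounds, 15 concentrations, 0.76% DMSO, were applied to CHO-K1 cells for 3hr at 37C before lysis.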
# [12] = qHTS RealTime-Glo MT Cell Viability Assay in HEK293 cells - 40 hour (AID 1224874); details: RealTime-Glo luminescence; max response: stronger effect = lower value
# In short: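 Luminescence, which tracks viable cell number through reduction of the prosubstrate to a NanoLuc substrate, was read over continuous 37 C culture. Cells (600/well) were premixed with reagent and rested 5 h before 23 nL of compound in DMSO was pinned.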
# [13] = qHTS assay to identify small molecule antagonists of the estrogen related receptor (ERR) signaling pathway from Tox21 library (AID 1224848)
# In short: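 Luciferase luminescence (ONE-Glo, 30 min room temperature) was the read-out. Cells of the NTP-supplied ERR line, 2,000 per well, were given 6 h at 37 C before compound addition in DMSO and 18 h exposure at 37 C.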
# [14] = qHTS RealTime-Glo MT Cell Viability Assay in HepG2 cells - 40 hour (AID 1224870)
# In short: (§2)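 Real-time viability: cells seeded at 600 per well together with NanoLuc and cell-permeant prosubstrate, compounds added after 5 h incubation. Luminescence tracked at 0, 8, 16, 24, 32 and 40 h of exposure.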
# [15] = qHTS RealTime-Glo MT Cell Viability Assay in HepG2 cells - 8 hour (AID 1224873); also: potency is read from the fitted curve at half-maximal effect; nearly all actives have a fitted effect of over 55% in size
# In short: as §2
# Tags tell the direction and shape of the fitted curve or compound fluorescence and quenching.
smiles,measurement,setting,value
CCCCCCCCCCCCCC[P+](CCCCCC)(CCCCCC)CCCCCC,Potency,[1],"active: 21.8 µM and active: 21.9 µM and inconclusive: 1.93 µM [cytotoxic, full curve]"
same,Potency,[2],inconclusive: 27.4 µM [activator]
same,Potency,[3],"inconclusive: 11 µM [falling, full curve] and inconclusive: 17.5 µM [falling, full curve]"
same,Potency,[4],active: 16 µM and active: 28.6 µM and active: 4 µM
same,Potency,[5],active: 3.91 µM and active: 2.47 µM and active: 1.95 µM
same,Potency,[6],"inconclusive: 27.5 µM [activator, partial curve, poor fit]"
same,Potency,[7],"inconclusive: 6.91 µM [cytotoxic, full curve]"
Brc1ccc(Oc2ccc(Br)cc2Br)c(Br)c1,Potency,[8],inactive
same,Potency,[9],"inconclusive: 30.7 µM [activator, partial curve, poor fit]"
same,activation,[2],inconclusive: -25.5%
same,Potency,[3],"inconclusive: 61.7 µM [falling, partial curve, poor fit]"
same,Potency,[4],active: 113 µM
same,Potency,[7],"inconclusive: 49 µM [cytotoxic, partial curve]"
CCOC(=O)C(O)(c1ccc(Cl)cc1)c1ccc(Cl)cc1,Potency,[1],"inconclusive: 55 µM [cytotoxic, partial curve] and inconclusive: 61.1 µM [cytotoxic, single point]"
same,Potency,[10],inactive
same,Potency,[11],active: 90.7 µM and active: 89.8 µM
same,Potency,[4],active: 90.7 µM and active: 56.6 µM
same,Potency,[5],"inconclusive: 38.9 µM [cytotoxic, partial curve]"
same,Potency,[6],"active: 44.1 µM and inconclusive: 38.9 µM [activator, partial curve]"
same,Potency,[12],active: 22.1 µM and active: 34.7 µM
ClC1C(Cl)C(Cl)C(Cl)C(Cl)C1Cl (stereo not drawn),Potency,[1],inconclusive: 68.6 µM [cytotoxic]
same,Potency,[3],"inconclusive: 61.6 µM [falling, single point]"
same,Potency,[13],"inconclusive: 61.7 µM [inhibitor, partial curve, poor fit] and inconclusive: 68 µM [inhibitor, partial curve, poor fit]"
same,Potency,[5],"inconclusive: 44 µM [cytotoxic, partial curve, poor fit] and inconclusive: 56.1 µM [cytotoxic, single point]"
same,Potency,[6],"inconclusive: 34.7 µM [activator, partial curve]"
same,Potency,[7],"inconclusive: 38.6 µM [cytotoxic, partial curve] [middle of 4 runs]"
same,Potency,[12],"inconclusive: 49.4 µM [cytotoxic, partial curve, poor fit]"
[Cl-].[Cl-].[Hg+2],Potency,[1],active: 15.3 µM and active: 2.43 µM
same,Potency,[10],"active: 43.5 µM and inconclusive: 3.09 µM [cytotoxic, full curve, poor fit]"
same,Potency,[4],active: 17.8 µM and active: 7.13 µM
same,Potency,[5],"inconclusive: 773 nM [rising, partial curve] and inconclusive: 195 nM [rising, partial curve]"
same,Potency,[14],"inconclusive: 54.7 µM [falling, single point]"
same,Potency,[15],active: 48.8 µM and active: 3.89 µM
same,Potency,[12],"inconclusive: 0.614 µM [rising, partial curve]"
CN(C)c1ccc(N)cc1,Potency,[1],active: 26.6 µM
same,activation,[2],inconclusive: -14.6%
same,Potency,[11],inconclusive: 49.3 µM [partial curve]
same,Potency,[6],"inconclusive: 53.6 µM [activator, single point]"
same,Potency,[7],active: 42.6 µM
same,Potency,[15],"inconclusive: 47.8 µM [falling, partial curve, poor fit]"
C[C@@H]1CC[C@@]2(OC1)O[C@H]1[C@@H](O)[C@H]3[C@@H]4CC[C@H]5C[C@@H](O[C@@H]6O[C@H](CO)[C@H](O[C@@H]7O[C@H](CO)[C@@H](O)[C@H](O[C@@H]8OC[C@@H](O)[C@H](O)[C@H]8O)[C@H]7O[C@@H]7O[C@H](CO)[C@@H](O)[C@H](O[C@@H]8O[C@H](CO)[C@@H](O)[C@H](O)[C@H]8O)[C@H]7O)[C@H](O)[C@H]6O)[C@H](O)C[C@]5(C)[C@H]4CC[C@]3(C)[C@H]1[C@@H]2C,Potency,[1],active: 20.5 µM
same,Potency,[2],"inconclusive: 9.16 µM [inhibitor, full curve]"
same,Potency,[3],"inconclusive: 13.1 µM [falling, full curve]"
same,Potency,[4],active: 10.7 µM
same,Potency,[14],active: 26.1 µM
same,Potency,[6],active: 3.68 µM
same,Potency,[15],active: 16.4 µM
C[C@]12CCC(=O)C[C@@H]1CC[C@@H]1[C@@H]2CC[C@]2(C)[C@@H](O)CC[C@@H]12,Potency,[1],"inconclusive: 67.8 µM [cytotoxic, single point]"
same,Potency,[10],"inconclusive: 3.84 µM [cytotoxic, full curve]"
same,Potency,[4],"active: 79.1 µM and inconclusive: 56.8 µM [cytotoxic, partial curve]"
same,Potency,[5],"inconclusive: 19.5 µM [cytotoxic, partial curve]"
same,Potency,[7],"active: 21.6 µM and inconclusive: 19.5 µM [cytotoxic, partial curve]"
same,Potency,[12],"active: 21.6 µM and inconclusive: 19.5 µM [cytotoxic, partial curve]"
